Data: the supplement of paper PMC4604168 (melanoma cell lines)
This is one part of the list. Most values come without repeats; read them as rough.

How the values were obtained:
Assay in all cases: cell count relative to DMSO control; melanoma cells; higher = more viable cells
Conditions in all cases: library dose: standard library concentration; 72 h
501Mel = test system: 501Mel
A101D = test system: A101D
A2058 = test system: A2058
A375 = test system: A375
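Further: cells treated in 1,536-well plates, then fixed and DAPI-stained, with nuclei counted from automated high-throughput microscope images.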

## Cc1cc(Nc2cc(N3CCN(C)CC3)nc(/C=C/c3ccccc3)n2)n[nH]1 + COc1cc(N2CCC(N3CCN(C)CC3)CC2)ccc1Nc1ncc(Cl)c(Nc2ccccc2S(=O)(=O)C(C)C)n1 [NVP-TAE684] (first compound 0.2 µM, partner dose 0.4 µM)
501Mel
  cell count: 77%
A101D
  cell count: 89%
A2058
  cell count: 55.7%
A375
  cell count: 77.7%

## Cc1cn(-c2cc(NC(=O)c3ccc(C)c(Nc4nccc(-c5cccnc5)n4)c3)cc(C(F)(F)F)c2)cn1 [nilotinib] + CC(C)CCN1c2nc(Nc3cc(F)c(O)c(F)c3)ncc2N(C)C(=O)C1C [BID1870] (first compound 1 µM, partner dose 1 µM)
501Mel
  cell count: 73.2%
A101D
  cell count: 79.3%
A2058
  cell count: 86%
A375
  cell count: 114%

## Cc1cc(Nc2cc(N3CCN(C)CC3)nc(/C=C/c3ccccc3)n2)n[nH]1 + COC(=O)c1sccc1S(=O)(=O)Nc1ccc(Nc2ccccc2)cc1OC [GSK0660] (first compound 0.2 µM, partner dose 5 µM)
501Mel
  cell count: 82%
A101D
  cell count: 70.9%
A2058
  cell count: 86.1%
A375
  cell count: 74.3%

## Cc1cn(-c2cc(NC(=O)c3ccc(C)c(Nc4nccc(-c5cccnc5)n4)c3)cc(C(F)(F)F)c2)cn1 [nilotinib] + Cc1cc([N+](=O)[O-])ccc1NS(=O)(=O)c1cc(Cl)ccc1Cl [FH535] (first compound 1 µM, partner dose 5 µM)
501Mel
  cell count: 87.8%
A101D
  cell count: 67.9%
A2058
  cell count: 111%
A375
  cell count: 100%

## Cc1cn(-c2cc(NC(=O)c3ccc(C)c(Nc4nccc(-c5cccnc5)n4)c3)cc(C(F)(F)F)c2)cn1 [nilotinib] + COc1ccc2c(c1)CCC1C2CCC2(C)C(NCCCCCCN3C(=O)C=CC3=O)CCC12 [U73122] (first compound 1 µM, partner dose 2 µM)
501Mel
  cell count: 108%
A101D
  cell count: 66.2%
A2058
  cell count: 4.33%
A375
  cell count: 103%

## Cn1c(=O)n(-c2ccc(C(C)(C)C#N)cc2)c2c3cc(-c4cnc5ccccc5c4)ccc3ncc21 + COc1ccc2c(c1)CCC1C2CCC2(C)C(NCCCCCCN3C(=O)C=CC3=O)CCC12 [U73122] (first compound 0.02 µM, partner dose 2 µM)
501Mel
  cell count: 97.3%
A101D
  cell count: 66.3%
A2058
  cell count: 40.4%
A375
  cell count: 65.9%

## Cn1c(=O)n(-c2ccc(C(C)(C)C#N)cc2)c2c3cc(-c4cnc5ccccc5c4)ccc3ncc21 + O=C(Nc1ccccc1)c1cc([N+](=O)[O-])ccc1Cl [GW9662] (first compound 0.02 µM, partner dose 10 µM)
501Mel
  cell count: 83%
A101D
  cell count: 68%
A2058
  cell count: 80.1%
A375
  cell count: 83.2%

## CC(C)C[C@H](NC(=O)[C@H](Cc1ccccc1)NC(=O)c1cnccn1)B(O)O [Bortezomib] + Cn1cc(/C=C2\C(=O)Nc3cccnc32)c2ccccc21 [GW441756] (first compound 0.005 µM, partner dose 2 µM)
501Mel
  cell count: 2.11%
A101D
  cell count: 12.8%
A2058
  cell count: 8.31%
A375
  cell count: 71.2%

## CC(C)C[C@H](NC(=O)[C@H](Cc1ccccc1)NC(=O)c1cnccn1)B(O)O [Bortezomib] + CCc1ccc(CCOc2ccc(CC3SC(=O)NC3=O)cc2)nc1 [pioglitazone] (first compound 0.005 µM, partner dose 10 µM)
501Mel
  cell count: 6.07%
A101D
  cell count: 9.26%
A2058
  cell count: 14%
A375
  cell count: 96.5%

## COc1ccc(C2=N[C@@H](c3ccc(Cl)cc3)[C@@H](c3ccc(Cl)cc3)N2C(=O)N2CCNC(=O)C2)c(OC(C)C)c1 [Nutlin-3] + COC(=O)c1sccc1S(=O)(=O)Nc1ccc(Nc2ccccc2)cc1OC [GSK0660] (first compound 0.5 µM, partner dose 5 µM)
501Mel
  cell count: 98.7%
A101D
  cell count: 58.2%
A2058
  cell count: 96.2%
A375
  cell count: 86.1%

## COc1ccc(C2=N[C@@H](c3ccc(Cl)cc3)[C@@H](c3ccc(Cl)cc3)N2C(=O)N2CCNC(=O)C2)c(OC(C)C)c1 [Nutlin-3] + COc1cc(N2CCC(N3CCN(C)CC3)CC2)ccc1Nc1ncc(Cl)c(Nc2ccccc2S(=O)(=O)C(C)C)n1 [NVP-TAE684] (first compound 0.5 µM, partner dose 0.4 µM)
501Mel
  cell count: 71%
A101D
  cell count: 58.3%
A2058
  cell count: 60.6%
A375
  cell count: 83.4%

## Cc1cc(Nc2cc(N3CCN(C)CC3)nc(/C=C/c3ccccc3)n2)n[nH]1 + O=C1NC(=O)/C(=C/c2ccc(-c3ccc(F)cc3O)o2)S1 [AS252424] (first compound 0.2 µM, partner dose 5 µM)
501Mel
  cell count: 89.6%
A101D
  cell count: 79.6%
A2058
  cell count: 86.5%
A375
  cell count: 139%
